Data: publication PMC4336329 (PLoS ONE, 2015)
About 14,000 (4.5%) of roughly 310,000 compounds showed an effect of 50% or more. The effect is printed as a negative number. Some of the results follow.

biological target: human ether-à-go-go-related gene (hERG) potassium channel (human, UniProt Q12809); assay: primary screen, population patch clamp on CHO cells stably expressing hERG
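Also: peak tail current of the secondary pulse compared with the same well before compound.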

Sequence of human ether-à-go-go-related gene (hERG) potassium channel (Q12809 whole entry, looked up): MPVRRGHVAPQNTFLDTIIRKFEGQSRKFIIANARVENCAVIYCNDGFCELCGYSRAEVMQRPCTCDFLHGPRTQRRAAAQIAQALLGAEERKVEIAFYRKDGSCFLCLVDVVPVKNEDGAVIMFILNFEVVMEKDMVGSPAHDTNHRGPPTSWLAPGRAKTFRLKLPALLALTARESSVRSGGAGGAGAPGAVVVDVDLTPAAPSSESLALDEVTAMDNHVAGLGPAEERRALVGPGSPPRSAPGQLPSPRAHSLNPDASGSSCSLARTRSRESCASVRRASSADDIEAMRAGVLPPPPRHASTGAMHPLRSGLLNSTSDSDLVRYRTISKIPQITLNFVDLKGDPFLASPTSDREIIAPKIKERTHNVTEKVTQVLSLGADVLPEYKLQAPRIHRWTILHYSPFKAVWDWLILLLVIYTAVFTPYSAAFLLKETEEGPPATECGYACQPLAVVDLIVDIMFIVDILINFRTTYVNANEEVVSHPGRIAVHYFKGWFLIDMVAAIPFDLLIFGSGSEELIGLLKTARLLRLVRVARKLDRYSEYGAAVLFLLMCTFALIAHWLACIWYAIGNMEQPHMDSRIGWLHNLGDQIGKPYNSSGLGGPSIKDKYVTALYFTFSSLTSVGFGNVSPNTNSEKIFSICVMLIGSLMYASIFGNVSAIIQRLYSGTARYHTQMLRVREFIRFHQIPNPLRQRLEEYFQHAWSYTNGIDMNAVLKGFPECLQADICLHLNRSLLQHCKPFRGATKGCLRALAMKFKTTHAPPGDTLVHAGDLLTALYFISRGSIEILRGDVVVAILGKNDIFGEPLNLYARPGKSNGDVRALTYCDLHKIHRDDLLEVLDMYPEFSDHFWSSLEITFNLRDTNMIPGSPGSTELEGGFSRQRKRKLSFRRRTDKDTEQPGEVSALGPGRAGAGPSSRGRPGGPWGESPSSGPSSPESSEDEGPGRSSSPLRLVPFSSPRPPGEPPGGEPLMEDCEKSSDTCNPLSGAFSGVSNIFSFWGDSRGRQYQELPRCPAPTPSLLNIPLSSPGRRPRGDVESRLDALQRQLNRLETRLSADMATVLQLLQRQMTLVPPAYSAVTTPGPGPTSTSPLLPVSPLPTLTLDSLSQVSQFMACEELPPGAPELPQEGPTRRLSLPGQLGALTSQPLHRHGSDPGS

Compound | hERG current change (%, negative = inhibition) at 10uM [%]
Cc1ccc(NC(=O)/C(=C\c2ccccc2)NC(=O)/C=C/c2ccccc2)cc1 | -12.9
CCOc1cc(N2CCOCC2)c(OCC)cc1NC(=O)c1ccc(S(=O)(=O)N(C)C)cc1 | 8.66
O=c1[nH]c(=S)[nH]nc1Cc1ccc(Cl)c(Cl)c1 | 25.6
CCn1cc(C(=O)Nn2cnnc2)c(=O)c2ccc(C)nc21 | 7.9
O=[N+]([O-])c1ccccc1NCc1ccccc1Cl | -4.13
O=C(NC(=S)Nc1cccc2c(O)cccc12)c1cccc(Br)c1 | -2.96
O=C(COc1ccccc1)N1CCN(S(=O)(=O)c2ccc(Br)cc2)CC1 | -17
CC(C(=O)N1CCCC1)c1ccc([N+](=O)[O-])cc1 (centres unmarked) | -0.0422
COc1ccc(N(C(=O)CNC(=O)c2ccco2)C(C(=O)NCC2CCCO2)c2ccccc2)c(OC)c1 (centres unmarked) | 6.48
O=C(Cn1cnc2ccccc21)N/N=C/c1ccccc1 | -1.25
COc1ccc2nc(NCc3ccccc3)[nH]c2c1 | -25.4
CCCCN(CC)CCNC(=O)c1nn(-c2ccc(OC)cc2)c(=O)c2c1c1ccccc1n2C | 0.748
COc1ccc(Cn2c(=O)c3[nH]cnc3n(-c3ccc(C)cc3)c2=O)cc1 | -8.31
CN(C)c1ccc(N=Nc2ccccc2C(=O)OCC(=O)N(C)c2ccccc2)cc1 | 6.76
CCN(CC)C(=O)c1ccc(-c2nnc(Nc3cccc(O)c3)c3ccccc23)cc1 | -33.2
Cc1onc(-c2c(Cl)cccc2Cl)c1C(O)c1ccccc1 (centres unmarked) | -3.04
Cc1nnc(SCC2=C(C(=O)O)N3C(=O)C(NC(=O)Cn4cnnn4)C3SC2)s1 (centres unmarked) | 8.27
Cc1ccc(-n2ccnc(SCC(=O)NC3CCCC3)c2=O)cc1Cl | 14.3
CC(=O)NC(=S)Nc1ccc(S(=O)(=O)N(C)Cc2ccccc2)cc1 | 13.5
O=C(Cc1ccccc1)NCc1nc2ccccc2[nH]1 | -6.31
CCOC(=O)CNC(=O)Cn1cnc2c(nnn2-c2ccc(F)cc2)c1=O | -16.6
CC(=O)c1cccc(NC(=O)N2CCCC2C(=O)NCc2ccc(F)cc2)c1 (centres unmarked) | -17.2

Compound | hERG current change (%, negative = inhibition) at 10uM [%]
CC1CCCN(S(=O)(=O)c2ccc(NC(=O)[C@@H]3CCCN3C(=O)c3cccs3)cc2)C1 (some centres unmarked) | -14.7
O=C1/C(=C/c2ccc3c(c2)OCO3)CCC/C1=C\c1ccc2c(c1)OCO2 | 2.71
Cc1ccc(Cl)cc1N1CCN(C(=O)CN(c2ccccc2)S(=O)(=O)N(C)C)CC1 | 9.76
Cc1snnc1C(=O)NC(=S)Nc1ccccc1 | 6.58
Cc1ccccc1NC(=O)Cc1c(O)c2ccccc2[nH]c1=O | 1.76
CC(OC(=O)c1cccc(S(=O)(=O)N2CCCCC2)c1)C(=O)NC1CCCCC1C (centres unmarked) | -36
CC(C)(C)c1ccc(C(=O)OCC(=O)NCc2ccco2)cc1 | -10.9
CC(=O)c1c(C)[nH]c(C(=O)COC(=O)C2CC2)c1C | 2.2
OC1(c2ccc(F)cc2)CC2CCC(C1)N2Cc1nnnn1C1CCCCC1 (centres unmarked) | -25
CC(=O)c1cc(-c2ccccc2)n(CC(=O)N2CCCCC2)c1C | 0.448
Br.O=C(CN1CCSC1=NCc1ccccc1)c1ccc(Cl)c(Cl)c1 | -17.7
COc1ccc2nc(NC(=O)C3CCN(S(=O)(=O)c4cccs4)CC3)sc2c1 | -13.6
O=C(Nc1nnc(COc2ccccc2)s1)Nc1ccccc1F | 30.9
Oc1ccc(Cl)cc1CNc1cnc2ccccc2c1 | 16.9
COc1ccc(OC)c(S(=O)(=O)n2cnc3cc(C)c(C)cc32)c1 | 4.08
Cc1cc(C)n2nc(C(=O)N/N=C/c3ccco3)nc2n1 | 12.3
O=C(/C=C/c1ccc(Cl)cc1)N1CCN(c2ccccn2)CC1 | -32.3
CCCn1c(CN2CCN(C)CC2)nc2ccccc21 | -9.68
O=[N+]([O-])c1ccc(Oc2cccc3cccnc23)c([N+](=O)[O-])c1 | -52
CC(C(=O)N1CCN(c2ccc(Cl)cc2)CC1)c1ncc(C(F)(F)F)cc1Cl (centres unmarked) | -48.3
CCCCCCOc1ccc(C(CC(=O)O)C(N)=O)cc1 (centres unmarked) | -7
CC1(C)Cc2c(cnn2-c2ccccc2)C(NC(=O)c2ccoc2)C1 (centres unmarked) | -93.4
